# According to publication PMC4336329 (PLoS ONE, 2015):
# Screen size: about 310,000 compounds; about 2,200 (0.71%) showed an effect of 50% or more. Effects have a minus sign here. The list shows a part of the results.
# Molecular target: human ether-à-go-go-related gene (hERG) potassium channel (human, UniProt Q12809)
# Test: primary screen, population patch clamp on CHO cells stably expressing hERG
# human ether-à-go-go-related gene (hERG) potassium channel, sequence (Q12809 whole entry, looked up): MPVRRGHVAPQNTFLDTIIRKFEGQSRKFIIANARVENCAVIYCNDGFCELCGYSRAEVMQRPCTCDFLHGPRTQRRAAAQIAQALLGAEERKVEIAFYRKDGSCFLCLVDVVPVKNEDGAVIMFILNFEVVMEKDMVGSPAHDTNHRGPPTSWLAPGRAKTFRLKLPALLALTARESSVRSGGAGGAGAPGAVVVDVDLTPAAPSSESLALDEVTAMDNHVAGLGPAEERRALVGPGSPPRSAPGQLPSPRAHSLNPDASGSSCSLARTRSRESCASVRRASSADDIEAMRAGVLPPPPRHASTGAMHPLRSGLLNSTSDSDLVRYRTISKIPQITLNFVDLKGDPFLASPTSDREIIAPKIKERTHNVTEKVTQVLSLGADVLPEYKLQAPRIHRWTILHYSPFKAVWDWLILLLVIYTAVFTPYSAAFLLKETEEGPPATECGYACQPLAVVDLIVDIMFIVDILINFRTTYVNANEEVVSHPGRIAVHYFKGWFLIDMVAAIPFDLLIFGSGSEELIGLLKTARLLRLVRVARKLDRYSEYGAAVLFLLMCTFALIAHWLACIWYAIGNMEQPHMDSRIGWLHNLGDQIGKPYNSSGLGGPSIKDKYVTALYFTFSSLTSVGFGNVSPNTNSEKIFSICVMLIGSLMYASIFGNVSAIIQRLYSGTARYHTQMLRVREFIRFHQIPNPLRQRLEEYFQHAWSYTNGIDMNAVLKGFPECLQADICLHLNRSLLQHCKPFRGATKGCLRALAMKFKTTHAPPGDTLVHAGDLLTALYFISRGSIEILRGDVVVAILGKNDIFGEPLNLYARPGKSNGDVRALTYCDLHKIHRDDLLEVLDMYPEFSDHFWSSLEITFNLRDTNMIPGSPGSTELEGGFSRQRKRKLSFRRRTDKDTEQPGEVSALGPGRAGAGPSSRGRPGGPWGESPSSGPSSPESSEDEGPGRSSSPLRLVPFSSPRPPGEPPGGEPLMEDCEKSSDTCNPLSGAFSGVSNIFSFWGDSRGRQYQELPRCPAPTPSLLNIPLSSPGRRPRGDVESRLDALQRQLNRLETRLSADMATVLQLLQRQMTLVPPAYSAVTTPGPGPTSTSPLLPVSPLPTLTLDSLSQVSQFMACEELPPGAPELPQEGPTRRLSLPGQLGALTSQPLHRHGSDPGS
row,SMILES,"hERG current change (%, negative = inhibition) at 1uM"
1,Cc1ccnc(Sc2ncccc2[N+](=O)[O-])n1,14.4%
2,CCn1c(COc2ccccc2Cl)nnc1SCC(=O)Nc1ncccc1C,5.62%
3,CCOC(=O)c1ccc2c(c1)n(CCO)c(C)[n+]2CC.[I-],6.24%
4,Cc1ccc(CSCC(=O)N(C)CC(=O)Nc2ccc(C)cc2)cc1,20.9%
5,COc1ccccc1OCCn1c(SCC(=O)O)nc2ccccc21,8.81%
6,CC(OC(=O)C1=COCCO1)C(=O)NC1CCCCC1C (centres unmarked),14.2%
7,COc1cccc(NC(=O)c2cccc(C(=O)Nc3cccc(OC)c3)n2)c1,17.5%
8,N#Cc1c(NC(=O)CSc2ncn(-c3ccccc3)n2)sc2c1CCCC2,5.4%
9,CCC1=NN(C(=O)c2ccc(Cl)cc2)C(O)(c2ccccc2)C1 (centres unmarked),12.8%
10,CC(=O)N(C(C)=O)c1nc(-c2ccccc2)cn1/N=C/c1ccccc1,13.2%
11,CCOC(=O)c1cnc2c(OC)cccc2c1N1CCN(c2ccccc2OC)CC1,-0.178%
12,Cc1cc(C)c2nc(N3CCCC(C(=O)N4CCC(C(N)=O)CC4)C3)sc2c1 (centres unmarked),1.7%
13,O=C(NC(=S)N1CCN(C/C=C/c2ccccc2)CC1)c1ccc(F)cc1,3.26%
14,Cc1ccc(CSc2nnc([C@@H]3CCCN3)o2)cc1.Cl,-0.955%
15,COc1ccc(C)cc1NC(=O)c1ccc(NS(=O)(=O)c2cccs2)cc1,19.5%
16,CCOC(=O)CCCCC(=O)c1[nH]c(=O)[nH]c1CSc1nc(C)cc(=O)[nH]1,19.1%
17,CCOc1ccc(C(=O)CCN2CCOCC2)cc1.Cl,10.9%
18,Cc1[nH]c2ccccc2c1/C=N/NC(=O)CNC(=O)c1cccs1,7.61%
19,CN1C(=O)[C@H]2[C@@H](C3CC3)N3C(=O)CN(CCO)C(=O)[C@@]3(Cc3ccccc3)[C@H]2C1=O,12.3%
20,CCOC(=O)N1CCC(n2c(=S)[nH]c3cc(OCC)c(OCC)cc3c2=O)CC1,2.34%
21,CCOC(=O)C1CCN(C(=O)Nc2ccc3oc(C)nc3c2)CC1,12.9%
22,O=C(CN1C(=O)NC2(CCCC2)C1=O)Nc1ccc(Cl)cc1C(F)(F)F,11.3%
23,Cc1ccc(C(=O)CSc2nc3ccccc3c(=O)n2N)o1,5.69%

row,SMILES,"hERG current change (%, negative = inhibition) at 1uM"
1,COc1ccc(Cn2c(C)cc3c(c2=O)C(c2cccs2)C(C#N)=C(N)O3)cc1OC (centres unmarked),12.5%
2,COc1ccc(C2N(C(C)=O)CCN2S(=O)(=O)c2ccc(C)cc2)cc1 (centres unmarked),10.8%
3,COc1ccc(CCCC(=O)NCCc2ccccc2)cc1,15.3%
4,COc1ccc(CC2(CO)CCN(Cc3nc(C(C)C)cs3)CC2)cc1,-1.4%
5,O=C1NC2(CCCCC2)N=C1c1ccc(Br)cc1,12.1%
6,CCN(CC(=O)NC1CCS(=O)(=O)C1)S(=O)(=O)c1cc([N+](=O)[O-])ccc1C (centres unmarked),-2.91%
7,COc1ccc(NC(=O)c2nc3ccccc3s2)cc1,-0.0959%
8,CC(=O)N/C(=N\c1nc(C)cc(C)n1)Nc1ccc(Cl)cc1Cl,9.89%
9,O=C1NC(c2ccccc2Br)=N/C1=C\c1ccco1,15%
10,COc1ccc2c(C#N)c3ccccn3c2c1,4.51%
11,C=COCCNC(=S)N1CCOCCOCCN(C(=S)NCCOC=C)CCOCC1,24.3%
12,CC1CCN(C(=O)CN(CCc2ccccc2)S(C)(=O)=O)CC1,9.89%
13,O=c1[nH]c2ccc(NC(=S)Nc3ccc(Cl)cc3)cc2[nH]1,15.2%
14,O=C(CCc1ccccc1)Nc1ccccc1C(=O)N1CCOCC1,10%
15,O=C(NC(=S)NCc1ccccc1)C1CC1,4.16%
16,COc1ccc(C2N(c3cccc(Cl)c3)C(=O)C3CCCN32)cc1 (centres unmarked),5.67%
17,CC(C)CNc1ncnc2c1cnn2Cc1ccc(Cl)cc1,18.4%
18,CCOc1ccc(/C=C2\SC(=S)N(CCC(=O)Nc3cccc(C(=O)O)c3)C2=O)cc1,5.05%
19,CCN(CC(=O)NC(C)(C)C)C(=O)COc1c(Cl)cc(Cl)c2ccc(C)nc12,-8.13%
20,CC(C)c1ccc(NC(=O)CCNC(=O)Cn2ccc3ccccc3c2=O)cc1,9.37%
21,COc1ccccc1C(=O)NCCC(=O)Nc1ccc(S(=O)(=O)N2CCCC(C)C2)cc1 (centres unmarked),9.04%
22,Cc1cc2ccccn2c1C(=O)Nc1ccccc1,1.28%
23,CCOc1ccccc1NC(=O)C1CCCN(S(=O)(=O)c2ccccc2)C1 (centres unmarked),-10.5%

row,SMILES,"hERG current change (%, negative = inhibition) at 1uM"
1,N/C(Cc1ccc(Cl)cc1)=N\OC(=O)Cc1ccc([N+](=O)[O-])cc1,9.45%
2,Cc1cc(O)cc(O)c1C(=O)Cc1ccccc1,3.44%
3,COc1ccc([C@H]2/C=C\CN(C(=O)c3ccc(C)cc3)[C@@H](C)C(=O)N2Cc2ccc(F)cc2)cc1,-6.98%
4,CC(NC(=O)COC(=O)c1cc([N+](=O)[O-])ccc1N1CCOCC1)c1ccc(F)cc1 (centres unmarked),-12.9%
5,O=C(c1ccccc1)c1nc2ccccc2[nH]c1=O,-6.62%
6,CCOC(=O)c1sc2nc(CSc3ccccc3Cl)[nH]c(=O)c2c1C,11.5%
7,O=C(NCCC(=O)N1CCN(S(=O)(=O)c2ccccc2Cl)CC1)Nc1ccccc1,8.4%
8,CCn1cc(CNC(=O)c2ccc3nc(Cc4ccc(OC)cc4)oc3c2)cn1,16.4%
9,Nc1c(C(=O)N2CCOCC2)sc2nc(N3CCOCC3)c3c(c12)CCCC3,13.4%
10,Cc1noc2ncnc(N3CCCCC3)c12,11.1%
11,O=C(CN1CCN(C(=O)c2ccco2)CC1)Nc1ccc2c(c1)OCCO2,5.79%
12,OCC[n+]1c2ccccc2nc2ccc(N3CCOCC3)cc21.[O-][Cl+3]([O-])([O-])[O-],1.91%
13,Cc1ccc(C(=O)NCCC(=O)Nc2ccccc2C)cc1,16.4%
14,CC1(C)C2CCC(C2)C1(C)NC(=O)CNCC1CCCCC1.Cl (centres unmarked),13.8%
15,CC[n+]1c(/C=C2/C=C(C)CC(C)(C)C2)sc2ccc(OC)cc21.Cc1ccc(S(=O)(=O)[O-])cc1,-26%
16,O=C(OCc1nnc(-c2ccccc2)o1)c1cn(-c2ccccc2)nc1-c1ccccc1,-1.95%
17,Cc1cccc(OCc2nc3ccccc3n2C)c1.Cl,13.3%
18,Cc1ccc(OC[C@H](O)[C@H](C)NC(C)C)c2c1CCC2.Cl,6.2%
19,O=S1(=O)CCO[C@H]2Cc3ccccc3[C@H]2N1Cc1ccccc1,10.6%
20,COc1ccc(N2CCN(C(=O)Cc3nn(C)c(=O)c4ccccc34)CC2)cc1,4.97%
21,COc1cc(CN2CCN(C(C)C)C(CCO)C2)ccc1OCc1ccccc1 (centres unmarked),-0.108%
22,O=C(O)C(Cc1c[nH]c2ccccc12)N1C(=O)c2ccccc2C1=O (centres unmarked),3.32%
23,Cc1ccsc1/C=N/NC(=O)C(N)=O,7.05%

row,SMILES,"hERG current change (%, negative = inhibition) at 1uM"
1,Cc1ccccc1-n1c(-c2ccc(=O)[nH]n2)n[nH]c1=S,16.8%
2,CCOC(=O)NN1C(=O)c2ccccc2NC12CCCC2,-3.87%
3,CCOc1cc(Br)c(C=O)cc1OCC,8.63%
4,Cc1cc(=O)[nH]c(-n2nc(C)c(Oc3ccccc3O)c2C)n1,5.83%
5,CCn1ncc(Br)c1C(=O)Nc1ccc(C(=O)OC(C)C)cc1,21.6%
6,COc1ccc(NC2=CC(=O)CC(c3ccccc3)C2)cc1 (centres unmarked),10.1%
7,Cn1cnc2cc(OC(=O)c3ccccc3)ccc21,-0.978%
8,CS(=O)(=O)N1N=C(c2cccs2)CC1c1ccc(F)cc1 (centres unmarked),8.67%
9,Cc1ccccc1C1C(C#N)=C2N=C(N)c3ccccc3N2C2=C1C(=O)CCC2 (centres unmarked),7%
10,CCCCOC(=O)c1ccc(Nc2ccc([N+](=O)[O-])cn2)cc1,13.1%
11,O=c1c2ccccc2nc2n1C(CSc1ccc(F)cc1)CS2 (centres unmarked),2.13%
12,CCOC(=O)c1ccc(NC(=O)N2C3CCCC2CC(NC(C)=O)C3)cc1 (centres unmarked),11.9%
13,COc1ccc(OC)c(CCNC(=O)CS(=O)(=O)Cc2nc(-c3ccc(C)cc3)oc2C)c1,-11.3%
14,N#Cc1cc(N)c(Nc2ccccc2)cc1C#N,7.02%
15,O=C(CCCCCBr)N1CCC(CC2CC(c3cccc(Br)c3)=NO2)(C(=O)NCC2CCCCC2)CC1 (centres unmarked),-31.9%
16,COC(=O)/C=c1/s/c(=C(\C#N)C(=O)NCc2ccco2)n(-c2ccccc2)c1=O,14.8%
17,CCCCCCc1c(C)c2ccc(OCC(=O)N3CCC[C@H]3C(=O)O)c(C)c2oc1=O,7.42%
18,CCc1nnc(NC(=O)CSc2nnc(C3CCCCC3)n2-c2ccccc2)s1,6.16%
19,O=C1C=C(c2cc(Cl)cc(Cl)c2)C[C@@H](c2ccc3c(c2)OCO3)C1,26.4%
20,Cc1nc(SCC(=O)N2CCN(c3ccccc3)CC2)n[nH]1,7.64%
